In all, about 33,000 sequences were measured (“E-score (-0.5 to 0.5)”: median about -0.041, highest 2% from about 0.37 on). The list shows a part of the results.
These sequences were tested against T1, Ecm22 (UniProt Q05958) (assay: PBM E-score (8-mer binding enrichment) (E-score (-0.5 to 0.5)); higher = stronger / more preferred TF binding; most listed sequences are background and not binding sites). Settings: protein concentration: 200 nM; construct: GST-full length.
T1 sequence: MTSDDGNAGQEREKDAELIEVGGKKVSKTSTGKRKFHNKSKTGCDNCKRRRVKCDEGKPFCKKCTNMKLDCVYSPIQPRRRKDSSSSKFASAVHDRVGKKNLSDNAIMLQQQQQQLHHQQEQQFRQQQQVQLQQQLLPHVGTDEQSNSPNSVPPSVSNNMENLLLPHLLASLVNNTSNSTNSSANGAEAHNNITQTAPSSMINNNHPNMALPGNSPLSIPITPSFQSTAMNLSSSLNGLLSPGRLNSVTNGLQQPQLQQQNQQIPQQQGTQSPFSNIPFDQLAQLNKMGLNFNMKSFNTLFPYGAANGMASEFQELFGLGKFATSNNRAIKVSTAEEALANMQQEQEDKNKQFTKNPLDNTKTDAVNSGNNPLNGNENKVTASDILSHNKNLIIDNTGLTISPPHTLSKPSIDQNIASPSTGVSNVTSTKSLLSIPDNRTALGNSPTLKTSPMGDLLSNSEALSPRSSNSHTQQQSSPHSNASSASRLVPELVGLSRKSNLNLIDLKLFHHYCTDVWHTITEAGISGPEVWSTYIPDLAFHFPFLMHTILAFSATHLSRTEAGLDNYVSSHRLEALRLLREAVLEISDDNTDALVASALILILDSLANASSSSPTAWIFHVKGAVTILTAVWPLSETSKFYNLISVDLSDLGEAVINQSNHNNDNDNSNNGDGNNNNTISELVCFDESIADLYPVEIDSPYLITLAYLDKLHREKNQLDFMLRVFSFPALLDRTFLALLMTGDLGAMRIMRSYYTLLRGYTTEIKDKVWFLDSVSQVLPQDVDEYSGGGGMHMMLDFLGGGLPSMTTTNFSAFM
Method: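 Universal 'all 10-mer' protein binding microarrays (Agilent AMADID 015681) probed with GST-tagged S. cerevisiae TFs (full-length or DBD) made by in vitro transcription/translation (PURExpress), about 100-200 nM. Bound TF was detected with fluorescent anti-GST. Each ungapped 8-mer (which stands for itself and its reverse complement) is scored by the PBM enrichment score (E-score), a modified Wilcoxon-Mann-Whitney statistic from -0.5 to +0.5, computed with the Universal PBM Analysis Suite. Scale: above 0.35 generally sequence-specific binding.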

Row | Sequence | PBM E-score
1 | CACGGTAC | 0.113
2 | CATTATCC | 0.152
3 | AAAGATGG | -0.286
4 | GCGTTCTA | 0.0647
5 | GAGCATGA | 0.00429
6 | GAAGTATA | 0.203
7 | CCTGCACC | -0.208
8 | CGGGCGTA | 0.0678
9 | CGGTCTAA | 0.0344
10 | TCTTGACA | 0.0086
11 | ACTAAGTG | 0.0267
12 | GAGGAGCA | 0.0722
13 | ATCGTTTC | 0.365
14 | AAAACTAG | -0.0165
15 | GCAAAGCC | -0.0701
16 | CCAGAACA | 0.117
17 | CGATGTTC | -0.0264
18 | GGTCCGGA | 0.0757
19 | TAATAATA | 0.177
20 | CTATACAA | -0.0134
21 | GAACAAGA | 0.0571
22 | GCGGCGCA | -0.188

Row | Sequence | PBM E-score
23 | ATTGGTGC | 0.0267
24 | GTTCTGAA | -0.013
25 | CGGAGCGC | -0.059
26 | CAGCACCA | -0.276
27 | TAGGCTCA | -0.298
28 | CAGATCCG | 0.0117
29 | AAATAGCC | -0.291
30 | CACAACTG | -0.0984
31 | CTTGGAAC | -0.00278
32 | GGCAGCAC | -0.254
33 | CGAGTCAG | 0.0491
34 | CTATACCA | -0.15
35 | GGACGTAC | 0.126
36 | AGTAGTAT | 0.116
37 | AACTTGAT | -0.0958
38 | CACTCCAG | 0.0257
39 | ACAGCAGC | -0.0121
40 | CAGCTGAG | -0.192
41 | ACTTACCT | -0.142
42 | CGCCAATA | 0.00375
43 | CGACGGCG | 0.183
44 | AATGCCTA | -0.227

Row | Sequence | PBM E-score
45 | GAAGTAAA | -0.0653
46 | CTAGGCGC | -0.117
47 | TCATGGGA | -0.222
48 | AGTGAGAC | -0.049
49 | TGAATCCA | -0.16
50 | CTGAACCA | -0.235
51 | AAAAAGTC | -0.075
52 | AACGACAT | 0.434
53 | AATCGTGC | 0.221
54 | GTCCAAAA | -0.152
55 | CAACGAGC | 0.336
56 | AAGGCTGC | -0.181
57 | CTTTCAGA | -0.105
58 | TGCAGACA | -0.234
59 | GACCATGA | -0.083
60 | ACCAGACA | 0.0442
61 | CTAGTCGA | -0.115
62 | AACGACGG | 0.444
63 | CGCGAGTA | 0.249
64 | CCACATTA | -0.0288
65 | ACGGAGGA | 0.151
66 | CCTCGGGC | 0.0916

Row | Sequence | PBM E-score
67 | CATTGTGA | -0.127
68 | AGGCGCTC | -0.0453
69 | GATGACAA | -0.00824
70 | AAACTGTG | -0.214
71 | GGCCTCAC | -0.18
72 | ATATGCGA | 0.35
73 | ATCTGCTG | 0.00714
74 | GCGAACAC | 0.0536
75 | CCTTGCAG | -0.0987
76 | TAACTCAA | -0.152
77 | CTCCCCCA | -0.218
78 | CCAGGGGC | -0.336
79 | CTCACCTC | 0.0368
80 | CTGGAAGC | -0.25
81 | AATGCACC | -0.138
82 | CATAGAGC | -0.272
83 | AAAGCTAT | 0.0112
84 | AATTAACC | 0.0103
85 | ATAAGAAT | 0.059
86 | ATACGACA | 0.469

Reference: the supplement of paper PMC3334620
